Article PMC6919601, “Identification of Plasmodium dipeptidyl aminopeptidase allosteric inhibitors by high throughput screening” (PLoS ONE, 2019)
“And” between values parts separate entries of the source, which are not always exact repeats. Identical values can stand only once. The campaign covered roughly 110,000 compounds. About 230 (0.21%) showed an effect of 50% or more. This is one part of the list.

target: DPAP1 (Plasmodium falciparum, UniProt Q8IIJ9); assay: primary screen, percent inhibition; read by cleavage of a fluorogenic dipeptide substrate; higher = more effect of the substance; design: species or system P. falciparum D10 trophozoite lysates; single well
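Also: 30 min substrate incubation versus DMSO and 10 µM JCP410 controls.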

Sequence of DPAP1 (Q8IIJ9 whole entry, looked up): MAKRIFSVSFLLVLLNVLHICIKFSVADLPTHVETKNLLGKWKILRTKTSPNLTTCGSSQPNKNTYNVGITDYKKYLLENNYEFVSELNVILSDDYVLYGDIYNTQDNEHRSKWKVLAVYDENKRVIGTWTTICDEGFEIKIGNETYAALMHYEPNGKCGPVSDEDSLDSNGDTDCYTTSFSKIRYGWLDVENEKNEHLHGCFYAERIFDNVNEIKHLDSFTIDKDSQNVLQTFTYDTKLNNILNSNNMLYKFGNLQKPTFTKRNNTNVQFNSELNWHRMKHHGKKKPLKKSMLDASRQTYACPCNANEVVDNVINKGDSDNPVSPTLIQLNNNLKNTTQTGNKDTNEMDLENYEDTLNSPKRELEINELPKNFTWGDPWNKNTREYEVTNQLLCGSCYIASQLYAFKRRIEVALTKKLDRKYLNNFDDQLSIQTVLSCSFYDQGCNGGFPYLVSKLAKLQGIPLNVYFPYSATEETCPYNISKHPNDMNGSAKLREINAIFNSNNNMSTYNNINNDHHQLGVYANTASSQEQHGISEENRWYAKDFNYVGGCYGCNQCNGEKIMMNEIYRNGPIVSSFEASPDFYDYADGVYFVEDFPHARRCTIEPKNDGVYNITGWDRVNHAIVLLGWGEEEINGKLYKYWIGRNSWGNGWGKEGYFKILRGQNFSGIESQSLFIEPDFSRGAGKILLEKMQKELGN

SMILES	% Inhibition @ 10 uM
Cc1ccc(S(=O)(=O)N2CCCC(C(=O)O)C2)cc1 (stereo not drawn)	-2.37%
Cc1cc(Cl)ccc1OCc1nc(-c2ccc(OCC(N)=O)cc2)no1	-6.23%
CCOC(=O)c1c(S(=O)(=O)N2CCC(Cc3ccccc3)CC2)c(C)n(C)c1C	-3.37%
CC1CCN(C(=O)CCn2ccc3cc(S(=O)(=O)N4CCCCC4)ccc32)CC1	4.16%
N#CCNC(=O)[C@H](CC1CC1)NC(=O)OCc1ccccc1	-1.83%
Cc1nc(O)c(C(=O)/C=C/c2ccccc2F)c2c1CCCC2	-0.833%
CCOc1ccc(-n2nnc(-c3nc(-c4ccc(C)cc4)no3)c2N)cc1	7.62%
O=C(O)c1cnc2ccc([N+](=O)[O-])cc2c1O	-0.591%
O=C(Cn1ncc2ccccc21)N1CCC2(CC1)OCCO2	3.29%
COc1ccc(Br)cc1C1=N/C(=C\c2ccc3c(c2)OCO3)C(=O)O1	4.38%
COc1ccc2c(c1)CC/C(=C\c1ccc(N(C)C)cc1)C2=O	2.72%
O=C(NCCCCCCNC(=O)c1cncc(O)c1)c1cncc(O)c1	8.74%
O=C(NCc1nc2ccccc2[nH]1)c1ccccn1	-1.24%
CCc1ccc(-n2c(C)cc(/C=C3\NC(=O)NC3=O)c2C)cc1	4.83%
C=CCNC(=S)Nc1ccc(Cl)c(Cl)c1	15.2%
Cc1ccccc1NS(=O)(=O)c1cccc(S(=O)(=O)c2cccc(S(=O)(=O)Nc3ccccc3C)c2)c1	1.42%
CCc1ccc(OCC(=O)Nc2sc3c(c2C(N)=O)CCCC3)cc1	1.27%
COc1cc(SC#N)ccc1N/C=C1/C(=O)NC(=O)N(c2ccccc2)C1=O	-6.7%
CC(C)(C)C1(C)OC(=O)C(=Cc2ccc(-c3ccc(C(=O)O)cc3)o2)C(=O)O1 (stereo not drawn)	27.6%
CCCC1(O)CC(c2ccccc2)NC(c2ccccc2)C1C (stereo not drawn)	6.12% and -2.51%
COc1ccc2oc(=O)c(-c3nc(-c4ccncc4)no3)cc2c1	-1.68%
Cn1c(=O)c2c(nc(SCc3ccc(C(=O)O)cc3)n2C)n(C)c1=O	-0.386%
CCOC(=O)N1CCC(NC(=O)CCc2c(C)nc3c(c(C)nn3-c3ccc(C)cc3)c2C)CC1	2.93%
Cc1cc(C)c2c(N)c(C(=O)c3cccc(Cl)c3)sc2n1	-1.38%
O=C(NCCOC12CC3CC(CC(C3)C1)C2)c1sc2ccccc2c1Cl	1.84%

SMILES	% Inhibition @ 10 uM
Cc1ccc(S(=O)(=O)NC2(C(=O)O)CCCCC2)cc1	-0.0626%
CN(C)c1ccc(NC(=O)NC2CCCCC2)cc1	-12.2%
CC(C)C[C@H](NC(=O)c1cccc(C#N)c1)C(=O)NCC#N	-4.72%
CCN(CC)CCNC(=O)c1sc2ccccc2c1Cl	-0.687%
COCCCN(C(=O)Cn1ncc2c(=O)oc3ccc(C)cc3c21)C(C)c1ccncc1 (stereo not drawn)	-0.0115%
CCC[C@H](NC(=O)C1(NC(=O)N2CCC(N3CCOCC3)CC2)CCCCC1)C(=O)c1nnc(-c2ccc(OC)cc2)o1	-8.26%
COc1ccc(O)c(/C=N/NC(N)=S)c1	6.11%
CCC1CCCCN1CCCNC(=O)C1CCN(S(=O)(=O)CC)CC1 (stereo not drawn)	11.1%
O=Cc1c[nH]c2ccc(S(=O)(=O)N3CCOCC3)cc12	-4.32%
CCOc1ccc(Oc2cccc(Br)n2)cc1	-0.511%
Cc1cccc(NC(=O)c2cc(F)c(F)cc2Cl)n1	-2.8%
CCn1c(COC)nc2ccccc21	-5.92%
CCN(CC)CCCNC(=O)Cn1ncn2c(cc3sccc32)c1=O	0.137%
COc1ccc(C(=O)N[C@H]2COC(C)(C)O[C@H]2c2ccccc2)cc1	-6.28%
CCN(CC)CCCOc1ccc(OC)cc1	3%
COC(=O)c1sccc1NC(=O)c1cc(-c2ccc(C)o2)nc2ccccc12	3.94%
O=C(O)CSc1cc(NS(=O)(=O)c2ccc3ccccc3c2)c2ccccc2c1O	-1.07%
CCOC(=O)c1[nH]c(C)c(C(=O)NC(CC)c2cccs2)c1C (stereo not drawn)	-4.68%
COc1ccc(C(N)=O)cc1NC(=O)CC(O)(C(F)(F)F)C(F)(F)F	3.8%
Cc1ccc(CNC(=O)CCCNS(=O)(=O)c2cccc3nonc23)cc1	-8.38%
COc1ccccc1-n1nnc(-c2nsc(NC(=O)c3ccc(C)cc3)n2)c1C	-3.02%
Cc1ccc(C(=O)N/C(=C/c2cccs2)C(=O)NC(C)(C)C)cc1	-5.07%
COC(=O)c1cc(S(=O)(=O)N(C)Cc2ccccc2)c[nH]1	-11.2%
O=C(COc1ccc(Br)cc1)Nc1ccc(Cl)cc1C(=O)O	-2.74%
O=C(CN1C(=O)c2ccccc2C1=O)N1CCN=C1c1ccccc1	-1.28%

SMILES	% Inhibition @ 10 uM
CN(C)c1ccc(CNCC2CCCO2)cc1 (stereo not drawn)	0.343%
Cc1ccccc1C(=O)N1CCC(C(=O)Nc2ccc(C(F)(F)F)cc2)CC1	-0.48%
O=C1CC(N2CCN(Cc3ccc4c(c3)OCO4)CC2)C(=O)N1CCc1ccccc1 (stereo not drawn)	-1.65%
COc1cc(C2C(C(=O)Nc3ccccc3)=C(C)Nc3ncnn32)ccc1OCc1ccccc1 (stereo not drawn)	6.1%
CCn1cc(CNC(=O)NC2CCCCC2)c(C)n1	-2.37%
COc1ccc(C2c3cc(OC)c(OC)cc3CCN2C(C)=O)cc1OC (stereo not drawn)	-2.42%
COc1cccc(CSc2nnc(C)n3c2cc2sccc23)c1	2.54%
CCOc1ccc(C2C(C(=O)c3ccco3)=C(O)C(=O)N2Cc2cccnc2)cc1OC (stereo not drawn)	2.17%
C=CCc1cccc2cc(C(=O)NC3CC(C)(C)NC(C)(C)C3)c(=O)oc12	6.91%
CC1CCN(C(=O)c2ccc(Cl)cc2)CC1	0.273%
CC(C)Sc1ncc(Cl)c(C(=O)N(Cc2ccccc2)c2ccccn2)n1	2.41%
O=C(NC1CCSC1=O)c1ccccc1 (stereo not drawn)	-0.833%
CCOC(=O)N1CCC2(CC1)C(C#N)=C(N)OC1=C2C(=O)CC(C)C1 (stereo not drawn)	-2.77%
COCCCNC(=O)/C(C#N)=C/c1c(Oc2ccc(C(C)(C)C)cc2)nc2c(C)cccn2c1=O	2%
CN(C)c1ccc(/C=C(/NC(=O)c2ccccc2)C(=O)N2CCCCCC2)cc1	3.72%
Cc1ccc2nc(C3C(=O)c4ccccc4C3=O)ccc2c1	-1.64%
O=C(CC(c1cccs1)N1Cc2ccccc2C1=O)NCc1ccccc1Cl (stereo not drawn)	-2.01%
CCOc1cc(/C=C2/C(=N)N3C(=NC2=O)SN=C3S(C)(=O)=O)ccc1O	1.85%
CC(C)C[C@H](NC(=O)OCc1ccccc1)C(=O)N(C)CC#N	-3.97%
COCCn1c(CN2CC(C)CC(C)C2)nc2c1c(=O)n(C)c(=O)n2C (stereo not drawn)	0.317%
CCc1ccc(OCC(O)CN2CCN(c3ccccc3F)CC2)cc1 (stereo not drawn)	-4.59%
Cc1nc(-c2ccccc2)nc2c1C(=O)/C(=C/c1ccccc1)S2	-4.61%
Fc1ccccc1CN1CCN(c2ccccn2)CC1	1.55%
Cn1cc(C(=O)NCCC2=CCCCC2)c2c3ccccc3n(C)c2c1=O	0.723%
COc1ccc(C2(CNS(=O)(=O)c3ccc(C)cc3)CCOCC2)cc1	3.15%

SMILES	% Inhibition @ 10 uM
COc1ccc(C(C)NC(=O)C2C(=O)NC3(C)CC2c2ccccc2O3)cc1 (stereo not drawn)	2.56%
CCS(=O)(=O)c1nc(S(=O)(=O)c2ccc(C)cc2)c(NC(C)C)s1	-0.522%
NC(=O)c1cc(S(=O)(=O)N2CCN(C(c3ccc(F)cc3)c3ccc(F)cc3)CC2)cs1	5.82%
CN(C)CCOC(=O)c1sc2ccccc2c1Cl	-4.21%
N#Cc1c(N)nc2c(c1-c1ccco1)CCCCCC2	-4.94%
COc1ccc(N(C(=O)/C=C/c2ccccc2)C2=CC3CCC(C2)N3C)cc1 (stereo not drawn)	4.57%
COc1ccc(NC(=O)/C(=C/c2ccc3c(c2)OCO3)NC(=O)c2ccco2)cc1	1.01%
CCC(=O)NC(C)C(c1cccs1)N1CCOCC1 (stereo not drawn)	2.34%
COc1cc(Br)cc2cc(C(=O)NCc3ccc4c(c3)OCO4)c(=O)oc12	-2.5%
CCOC(=O)C1=C(C)N=c2s/c(=C/c3ccc(C)o3)c(=O)n2C1c1cccs1 (stereo not drawn)	-1.2%
Cc1ccc(Cn2nnc3c(=O)n(CC(=O)NCc4ccccc4)cnc32)cc1	-2.16%
COc1c(Cl)cnn(-c2ccccc2)c1=O	-6.5%
CCSc1snc(O)c1C#N	1.72%
COc1cc2c(cc1OC)C(C(=O)NCCCN1CCOCC1)C(c1cccnc1)N(C)C2=O (stereo not drawn)	-2.12%
CCOC(=O)c1sc2nc(C)cc(C)c2c1N	-0.197%
Cn1cccc1Cc1nnc(SCC(N)=O)n1-c1ccc(F)cc1	-3.95%
COc1ccc(OC)c(CCNC(=O)c2sc(-n3cccc3)nc2C)c1	2.65%
O=C(NCCc1ccccc1)c1ccc(CNC(=O)c2ccc(Br)cc2)cc1	-5.64%
CN1C(=O)CC(C(=O)Nc2ccccc2)S/C1=N\c1ccc(Br)cc1 (stereo not drawn)	4.05%
Cc1cccn2c(=O)c3cc(C#N)c(=O)n(-c4nnc(SCc5ccccc5Cl)s4)c3nc12	-4.07%
Cc1ccc2nc(Cl)c3cc(C(=O)NCC4CCCO4)sc3c2c1 (stereo not drawn)	-1.7%
COc1ccccc1NC(=O)C1=C(C)N=C2CCCC(O)=C2C1c1ccc(F)cc1 (stereo not drawn)	-2.77%
CCn1cc(CNC(=O)c2cnn3c(C(F)F)cc(-c4ccc(OC)cc4)nc23)cn1	-3.53%
Cc1cccc2c1-c1sc(C(=O)N3CCCCC3C)cc1CO2 (stereo not drawn)	-4.85%
